{"source": "PubChem BioAssay AID881", "about": "(National Center for Advancing Translational Sciences (NCATS), 2007)", "note": "Screen size: about 110,000 compounds; about 610 (0.55%) were called active. The shares of active, inactive and inconclusive entries below differ from those in the screen. The call rests on the fitted dose curve; in most records, active means well fitted inhibition curve with a large enough effect; inconclusive means small, poorly fitted or top-dose-only effect; inactive means no such curve, though single readings can be large or run the other way. A potency beside an inconclusive call is a rough fit, not a confirmed value. On the % scale 0 is the no-effect control and ±100 the full control effect; potency means the concentration at half of the fitted maximal effect; tags describe the fitted curve by direction and shape."}
{"target": "Polyunsaturated fatty acid lipoxygenase ALOX15B (Homo sapiens) (UniProt O15296)", "sequence (O15296 whole entry, looked up)": "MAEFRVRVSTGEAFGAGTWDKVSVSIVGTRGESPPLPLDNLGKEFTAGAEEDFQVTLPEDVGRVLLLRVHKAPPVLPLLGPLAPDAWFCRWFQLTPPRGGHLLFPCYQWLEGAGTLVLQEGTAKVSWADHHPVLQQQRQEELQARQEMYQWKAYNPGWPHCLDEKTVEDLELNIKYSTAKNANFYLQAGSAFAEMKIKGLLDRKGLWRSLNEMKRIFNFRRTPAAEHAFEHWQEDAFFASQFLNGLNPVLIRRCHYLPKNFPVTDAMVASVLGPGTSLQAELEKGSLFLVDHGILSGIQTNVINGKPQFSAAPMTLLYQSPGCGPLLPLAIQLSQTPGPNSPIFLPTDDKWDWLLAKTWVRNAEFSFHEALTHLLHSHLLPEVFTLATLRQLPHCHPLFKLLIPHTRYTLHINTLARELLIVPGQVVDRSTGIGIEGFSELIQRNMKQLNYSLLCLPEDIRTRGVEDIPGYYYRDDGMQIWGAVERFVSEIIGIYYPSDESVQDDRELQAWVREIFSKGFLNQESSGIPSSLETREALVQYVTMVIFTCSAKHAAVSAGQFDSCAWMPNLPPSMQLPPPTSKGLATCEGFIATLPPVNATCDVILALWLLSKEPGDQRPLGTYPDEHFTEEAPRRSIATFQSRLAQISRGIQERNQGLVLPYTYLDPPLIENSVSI", "assay": "qHTS Assay for Inhibitors of 15-hLO-2 (15-human lipoxygenase 2); further: nearly all actives have a fitted effect of over 60% in size", "conditions": "purified 15hLO-2, xylenol orange hydroperoxide absorbance; activity change, negative = inhibition: at 57.1 µM (top of the series) unless noted", "procedure,_shortened": "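Read-out: hydroperoxide product oxidises ferrous iron, measured as xylenol orange complex via the 573-to-405 nm absorbance ratio after 30 min. Reaction: 50 nM enzyme, 15 min compound preincubation, 45 uM arachidonic acid, 90 min RT, Hepes pH 7.5 with Triton X-100.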"}
{"smiles": "COc1ccc2ccccc2c1C1CC(=O)N2CN(C3CCCCC3)CSC2=C1C#N", "note": "(stereo unspecified)", "Potency": "inconclusive: 31.6 µM [inhibitor, single point]"}
{"smiles": "O=C1CC(c2ccco2)CC(O)=C1C=Nc1cc(Cl)ccc1O", "note": "(stereo unspecified)", "Potency": "inconclusive: 12.6 µM [inhibitor, partial curve]"}
{"smiles": "Cc1ccc2cccc(S(=O)(=O)Nc3ccc4c(c3)OCO4)c2n1", "activity change, negative = inhibition": "inactive: 2.25%"}
{"smiles": "Cc1ccc(Cc2c(C)nc3nc(SCC(=O)NCc4ccco4)nn3c2C)cc1", "activity change, negative = inhibition": "inactive: -21.6%"}
{"smiles": "Cc1nnc(SCC2=C(C(=O)O)N3C(=O)[C@@H](NC(=O)Cn4cnnn4)[C@@H]3SC2)s1", "Potency": "inactive"}
{"smiles": "CCOc1cc(/C=C2/NC(=S)NC2=O)ccc1OCc1ccc([N+](=O)[O-])cc1", "Potency": "inconclusive: 25.1 µM [inhibitor, single point]"}
{"smiles": "O=C(NNc1nc(-c2ccccc2)cs1)c1ccccc1", "Potency": "inconclusive: 12.6 µM [inhibitor, partial curve]"}
{"smiles": "CCCCN1C(=O)/C(=C/C=C2\\N(C)c3ccccc3C2(C)C)SC1=S", "Potency": "inconclusive: 12.6 µM [inhibitor, partial curve]"}
{"smiles": "COc1ccc(CCN2C(=O)CC(Nc3ccc(N4CCOCC4)cc3)C2=O)cc1OC", "note": "(stereo unspecified)", "Potency": "active: 25.1 µM"}
{"smiles": "Cc1cc(C(=O)CSCCCn2c(=O)[nH]c3ccccc32)c(C)n1C", "Potency": "inconclusive: 25.1 µM [inhibitor, single point]"}
{"smiles": "COc1ccc(CNC(=O)c2sc(=S)n(-c3ccc(OC)cc3)c2N)cc1", "Potency": "inconclusive: 12.6 µM [inhibitor, partial curve]"}
{"smiles": "O=C(Cn1cc(C(=O)c2ccco2)c2ccccc21)NCc1ccco1", "Potency": "inconclusive: 0.251 µM [inhibitor, full curve]"}
{"smiles": "Fc1ccc(NC(=S)N2CCCc3ccccc32)cc1", "Potency": "inconclusive: 20 µM [inhibitor, partial curve]"}
{"smiles": "C=CC(=O)OCCOCCOC(=O)C=C", "activity change, negative = inhibition": "inactive: -4.99%"}
{"smiles": "CCCCn1c(Cl)nc2c1c(=O)n(C)c(=O)n2C", "Potency": "inconclusive: 0.316 µM [inhibitor, partial curve]"}
{"smiles": "O=[N+]([O-])c1ccc2nccn2c1", "activity change, negative = inhibition": "inactive: 0.759%"}
{"smiles": "COC(=O)[C@@H]1[C@@H]2C[C@H]3c4[nH]c5ccccc5c4CCN3C[C@@H]2CC[C@@H]1OS(=O)(=O)O", "activity change, negative = inhibition": "inactive: -4.55% [at 11.4 µM]"}
{"smiles": "O=C1Nc2ccc(F)cc2C12Nc1ccccc1-c1nnc(SCc3ccccc3Cl)nc1O2", "note": "(stereo unspecified)", "Potency": "inconclusive: 20 µM [inhibitor, partial curve]"}
{"smiles": "CN1C(=O)/C(=C/c2cc(N=Nc3ccccc3)ccc2O)SC1=S", "Potency": "inconclusive: 15.8 µM [inhibitor, partial curve]"}
{"smiles": "Cc1cc(Cl)ccc1NC(=O)CSc1nnc(Cc2cccs2)n1Cc1ccco1", "Potency": "inconclusive: 25.1 µM [inhibitor, partial curve]"}
{"smiles": "O=C(O)c1ccc(C(=O)O)c(C(=O)c2ccccc2)c1", "Potency": "inconclusive: 1 µM [inhibitor, single point]"}
{"smiles": "CCCCCCCCS(=O)c1sc2nc(C)cc(C)c2c1N", "note": "(stereo unspecified)", "Potency": "inconclusive: 12.6 µM [inhibitor, partial curve]"}
{"smiles": "CC(c1ccc(F)cc1)n1c(-c2ccc3ccccc3n2)n[nH]c1=S", "note": "(stereo unspecified)", "Potency": "inconclusive: 12.6 µM [inhibitor, partial curve]"}
{"smiles": "O=C(Oc1ccccc1)N1CCC2(CCCN(c3ncccn3)C2)CC1", "activity change, negative = inhibition": "inactive: 7.67%"}
{"smiles": "C=CCc1ccc(O)c(-c2cc(CC=C)ccc2O)c1", "Potency": "inconclusive: 31.6 µM [inhibitor, single point]"}
{"smiles": "COc1cccc(NC(=O)CSc2ccccn2)c1", "activity change, negative = inhibition": "inactive: -5.03%"}
{"smiles": "N#CC1=C(N)SC(N)=C(C#N)C1CCc1ccccc1", "Potency": "inconclusive: 31.6 µM [inhibitor, single point]"}
{"smiles": "CS(=O)(=O)c1ccc(N)cc1", "activity change, negative = inhibition": "inactive: 0.853%"}
{"smiles": "C/C(=N/NC(=O)c1ccncc1)c1ccccc1Cl", "activity change, negative = inhibition": "inactive: -4.05% [at 11.4 µM]"}
{"smiles": "O=C1N/C(=C/c2ccc(N3CCOCC3)cc2)C(=O)N1Cc1ccc(F)cc1", "Potency": "inconclusive: 7.94 µM [inhibitor, full curve, poor fit]"}
{"smiles": "C=CCN1C(=O)C(CC(=O)Nc2ccc(OC)cc2)N(Cc2ccco2)C1=S", "note": "(stereo unspecified)", "Potency": "inconclusive: 31.6 µM [inhibitor, single point]"}
{"smiles": "Cc1cc(NC(=S)Nc2ccccc2)ccc1Br", "Potency": "inconclusive: 25.1 µM [inhibitor, single point]"}
{"smiles": "O=C1c2ccccc2NC(c2c(Cl)cccc2Cl)N1Cc1ccccc1", "note": "(stereo unspecified)", "Potency": "inconclusive: 3.16 µM [inhibitor, partial curve]"}
{"smiles": "CCOc1ccc(CCNC(=O)C2CCC(=O)N2C2CCCCC2)cc1OCC", "note": "(stereo unspecified)", "activity change, negative = inhibition": "inactive: -2.53%"}
{"smiles": "O=C1Nc2ccc(I)cc2/C1=C/c1cc(Br)c(O)c(Br)c1", "Potency": "inconclusive: 39.8 µM [inhibitor, single point]"}
{"smiles": "Cc1ccc(NC(=O)Cn2cccc2)cc1C", "activity change, negative = inhibition": "inactive: -6.09%"}
{"smiles": "CC(=O)N1CCC2(CCCN(C(c3ccccc3)c3ccccc3)C2)CC1", "activity change, negative = inhibition": "inactive: 3.94%"}
{"smiles": "Cc1cc(C)cc(NC(=O)Cn2c(=O)oc3cc(S(=O)(=O)N4CCC(C)CC4)ccc32)c1", "Potency": "inconclusive: 31.6 µM [inhibitor, single point]"}
{"smiles": "Cc1ccc(/C=N/n2c(COc3ccccc3)n[nH]c2=S)s1", "Potency": "inconclusive: 3.98 µM [inhibitor, full curve]"}
{"smiles": "CCOC(=O)c1cc2c(=O)n3ccccc3nc2n(CCCOC)c1=NC(=O)C(C)(C)C", "Potency": "inconclusive: 0.251 µM [inhibitor, full curve, poor fit]"}
{"smiles": "Cc1ccc([N+](=O)[O-])cc1N=Cc1ccc(Br)s1", "Potency": "inconclusive: 20 µM [inhibitor, partial curve]"}
{"smiles": "COc1ccc2c(c1)CC/C(=C\\Nc1ccc3c(c1)OCO3)C2=O", "Potency": "inconclusive: 2 µM [inhibitor, full curve]"}
{"smiles": "CSc1snc(SCC(N)=O)c1C#N", "activity change, negative = inhibition": "inactive: -8.24%"}
{"smiles": "COc1ccc(CCNC(=S)Nc2cccc(C)c2)cc1", "Potency": "inconclusive: 31.6 µM [inhibitor, single point]"}
{"smiles": "CCn1c(SC(=O)NC2CCCCC2)nnc1-c1cccs1", "Potency": "inconclusive: 31.6 µM [inhibitor, single point]"}
{"smiles": "CCn1c(-c2cc(-c3cccc(OC)c3)nc3ccccc23)n[nH]c1=S", "Potency": "inconclusive: 15.8 µM [inhibitor, partial curve]"}
